Assay [1] concerns the target SMG1 (full-length recombinant, wild-type, N-terminal SBP-tag) (UniProt Q96Q15). Nature of the assay: SPR; SMG1 immobilised on a streptavidin chip; each UPF2 construct injected at 10 nM; interaction profile; both purified. (In general: SPR reads the build-up and loss of mass on a sensor chip optically.)
The target is the same in assay [2]. Description: SPR; competition: SMG1 immobilised; MIF4G-3 at constant 50 nM injected with 0, 50, 250, 500 nM UPF3b RRM domain; both purified.
For assay [3], the target named is FLAG-tagged UPF2 ΔM1 (lacking the core MIF4G-1 domain, residues 168–431) (human) (UniProt Q9HAU5). Description: co-IP; HeLa cells transfected with FLAG-tagged UPF2 plasmids; immunoprecipitation with FLAG beads; co-precipitated UPF1 and UPF3b detected by western blotting.
In assay [4] the target is FLAG-tagged wild-type UPF2 (human) (UniProt Q9HAU5). The description is as above.
Assay [5] has as its target FLAG-tagged UPF2 ΔN/M1 (lacking MIF4G-1 and the preceding N-terminal region, residues 1–455) (human) (UniProt Q9HAU5). The description is as above.
Assay [6] concerns the target FLAG-tagged UPF2 ΔN/M1M2 (lacking MIF4G-1, MIF4G-2 and the preceding N-terminal region, residues 1–757) (human) (UniProt Q9HAU5). The description is as above.
Assay [7] addresses FLAG-tagged UPF2 ΔM2 (lacking the core MIF4G-2 domain, residues 569–758) (human) (UniProt Q9HAU5). The assay is described as above.

Chains of the proteins cited; added tags and fusions are not shown.
UniProt Q96Q15: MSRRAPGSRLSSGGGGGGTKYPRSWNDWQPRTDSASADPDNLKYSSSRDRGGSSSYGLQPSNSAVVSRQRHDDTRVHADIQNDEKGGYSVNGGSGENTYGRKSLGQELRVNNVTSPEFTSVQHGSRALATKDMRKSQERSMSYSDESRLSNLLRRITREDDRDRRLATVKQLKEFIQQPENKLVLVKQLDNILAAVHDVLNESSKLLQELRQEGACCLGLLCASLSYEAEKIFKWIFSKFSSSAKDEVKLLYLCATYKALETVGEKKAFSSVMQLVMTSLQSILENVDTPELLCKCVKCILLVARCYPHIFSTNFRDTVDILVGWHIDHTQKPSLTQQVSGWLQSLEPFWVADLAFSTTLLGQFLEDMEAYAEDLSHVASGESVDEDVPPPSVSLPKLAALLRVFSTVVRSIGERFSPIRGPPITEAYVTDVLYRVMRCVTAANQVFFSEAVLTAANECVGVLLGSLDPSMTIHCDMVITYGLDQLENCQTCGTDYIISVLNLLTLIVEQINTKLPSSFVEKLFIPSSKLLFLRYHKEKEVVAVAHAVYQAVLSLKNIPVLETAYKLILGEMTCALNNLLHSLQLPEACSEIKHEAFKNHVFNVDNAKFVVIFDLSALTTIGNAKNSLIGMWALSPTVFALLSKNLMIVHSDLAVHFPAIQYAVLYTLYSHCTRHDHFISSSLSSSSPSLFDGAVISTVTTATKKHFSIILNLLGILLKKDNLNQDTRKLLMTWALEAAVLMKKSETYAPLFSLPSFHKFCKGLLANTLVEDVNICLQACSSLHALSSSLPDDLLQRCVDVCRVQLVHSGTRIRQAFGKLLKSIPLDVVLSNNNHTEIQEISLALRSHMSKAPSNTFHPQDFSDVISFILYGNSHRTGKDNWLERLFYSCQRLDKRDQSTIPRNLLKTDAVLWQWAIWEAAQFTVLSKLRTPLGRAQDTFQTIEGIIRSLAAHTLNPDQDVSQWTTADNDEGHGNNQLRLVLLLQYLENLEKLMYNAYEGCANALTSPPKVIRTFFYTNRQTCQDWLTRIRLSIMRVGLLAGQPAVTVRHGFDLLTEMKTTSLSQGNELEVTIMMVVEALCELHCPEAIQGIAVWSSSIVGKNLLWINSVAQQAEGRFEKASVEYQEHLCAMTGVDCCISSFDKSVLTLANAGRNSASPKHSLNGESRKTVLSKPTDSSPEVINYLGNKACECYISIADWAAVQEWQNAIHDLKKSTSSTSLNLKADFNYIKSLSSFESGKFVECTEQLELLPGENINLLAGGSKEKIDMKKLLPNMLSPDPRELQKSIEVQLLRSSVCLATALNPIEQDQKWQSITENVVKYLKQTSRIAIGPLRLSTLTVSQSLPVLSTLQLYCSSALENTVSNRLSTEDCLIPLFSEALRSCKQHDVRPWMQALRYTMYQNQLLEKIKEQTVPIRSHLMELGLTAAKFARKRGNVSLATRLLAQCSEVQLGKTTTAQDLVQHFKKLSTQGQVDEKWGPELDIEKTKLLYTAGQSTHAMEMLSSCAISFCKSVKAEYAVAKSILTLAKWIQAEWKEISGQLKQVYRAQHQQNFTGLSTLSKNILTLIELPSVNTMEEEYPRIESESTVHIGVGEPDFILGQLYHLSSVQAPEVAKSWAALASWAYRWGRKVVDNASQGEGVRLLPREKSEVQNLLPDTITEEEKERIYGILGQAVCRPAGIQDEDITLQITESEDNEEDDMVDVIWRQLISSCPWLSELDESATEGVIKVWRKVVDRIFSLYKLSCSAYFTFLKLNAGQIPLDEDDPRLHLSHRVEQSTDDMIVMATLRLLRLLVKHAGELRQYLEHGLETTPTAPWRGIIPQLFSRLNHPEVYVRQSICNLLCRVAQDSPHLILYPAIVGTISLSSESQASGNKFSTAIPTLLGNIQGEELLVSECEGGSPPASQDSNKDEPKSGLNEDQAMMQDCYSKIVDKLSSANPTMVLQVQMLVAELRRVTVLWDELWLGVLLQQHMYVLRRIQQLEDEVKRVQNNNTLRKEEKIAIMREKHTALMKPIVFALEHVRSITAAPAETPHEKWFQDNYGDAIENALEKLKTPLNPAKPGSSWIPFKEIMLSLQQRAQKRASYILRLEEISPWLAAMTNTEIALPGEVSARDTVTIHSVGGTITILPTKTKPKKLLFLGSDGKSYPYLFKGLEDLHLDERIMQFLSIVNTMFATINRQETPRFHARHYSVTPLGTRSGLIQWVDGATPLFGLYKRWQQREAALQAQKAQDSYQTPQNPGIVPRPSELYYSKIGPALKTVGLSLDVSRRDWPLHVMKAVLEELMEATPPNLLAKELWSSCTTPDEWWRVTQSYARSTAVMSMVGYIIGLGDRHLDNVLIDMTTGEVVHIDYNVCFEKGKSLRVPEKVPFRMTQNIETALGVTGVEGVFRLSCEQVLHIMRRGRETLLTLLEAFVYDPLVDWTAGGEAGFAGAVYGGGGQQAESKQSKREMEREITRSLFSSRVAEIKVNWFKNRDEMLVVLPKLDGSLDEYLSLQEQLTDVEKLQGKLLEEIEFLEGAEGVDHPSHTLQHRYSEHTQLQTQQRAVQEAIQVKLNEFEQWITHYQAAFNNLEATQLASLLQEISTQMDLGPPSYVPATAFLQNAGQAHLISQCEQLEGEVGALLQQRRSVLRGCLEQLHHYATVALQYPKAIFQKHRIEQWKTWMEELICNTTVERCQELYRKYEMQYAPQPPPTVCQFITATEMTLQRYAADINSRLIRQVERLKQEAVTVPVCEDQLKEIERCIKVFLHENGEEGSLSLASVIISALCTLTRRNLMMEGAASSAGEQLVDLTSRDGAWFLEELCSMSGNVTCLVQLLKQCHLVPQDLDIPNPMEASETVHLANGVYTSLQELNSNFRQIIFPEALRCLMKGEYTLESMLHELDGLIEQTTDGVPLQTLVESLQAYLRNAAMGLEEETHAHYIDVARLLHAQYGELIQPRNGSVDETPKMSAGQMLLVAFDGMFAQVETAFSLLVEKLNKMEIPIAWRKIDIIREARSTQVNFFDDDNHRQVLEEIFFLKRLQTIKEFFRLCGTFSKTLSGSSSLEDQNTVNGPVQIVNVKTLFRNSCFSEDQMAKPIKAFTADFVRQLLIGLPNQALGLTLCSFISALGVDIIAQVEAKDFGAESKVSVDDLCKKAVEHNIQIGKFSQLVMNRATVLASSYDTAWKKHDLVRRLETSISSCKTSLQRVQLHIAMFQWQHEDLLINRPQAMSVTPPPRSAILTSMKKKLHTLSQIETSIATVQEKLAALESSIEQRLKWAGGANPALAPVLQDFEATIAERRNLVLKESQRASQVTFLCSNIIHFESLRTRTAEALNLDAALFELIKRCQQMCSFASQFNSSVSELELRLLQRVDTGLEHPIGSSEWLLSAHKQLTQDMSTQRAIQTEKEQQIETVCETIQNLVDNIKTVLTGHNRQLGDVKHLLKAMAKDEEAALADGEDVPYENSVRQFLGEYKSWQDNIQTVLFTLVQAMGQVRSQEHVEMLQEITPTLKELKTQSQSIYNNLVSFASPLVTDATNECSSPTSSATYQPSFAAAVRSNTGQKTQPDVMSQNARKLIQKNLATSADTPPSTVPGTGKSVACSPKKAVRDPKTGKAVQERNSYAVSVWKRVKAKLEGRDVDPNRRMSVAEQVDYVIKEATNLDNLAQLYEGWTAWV

These are yes or no findings as the source states them, for the method shown. For some assays here: In cells and extracts the contact can be indirect. Some binding calls cover weakened binding; strength is not graded here.

Turning to “UPF2 MIF4G-1 domain (residues 121–486) (from UniProt Q9HAU5 121-486) (domain or fragment)”, the binding result in assay [1] is “no binding (tested: 10 nM)”.

Turning to “UPF2 MIF4G-2 domain (residues 455–757) (from UniProt Q9HAU5 455-757) (domain or fragment)”, the binding result in assay [1] is “no binding (tested: 10 nM)”.

B1: UPF2 MIF4G-3 domain (residues 761–1054) (domain or fragment, human, UniProt Q9HAU5 761-1054, looked up)
chain: EKTVKKKRPPLQEYVRKLLYKDLSKVTTEKVLRQMRKLPWQDQEVKDYVICCMINIWNVKYNSIHCVANLLAGLVLYQEDVGIHVVDGVLEDIRLGMEVNQPKFNQRRISSAKFLGELYNYRMVESAVIFRTLYSFTSFGVNPDGSPSSLDPPEHLFRIRLVCTILDTCGQYFDRGSSKRKLDCFLVYFQRYVWWKKSLEVWTKDHPFPIDIDYMISDTLELLRPKIKLCNSLEESIRQVQDLEREFLIKLGLVNDKDSKDSMTEGENLEEDEEEEEGGAETEEQSGNESEVNE
notes: UPF2, human, Q9HAU5, MIF4G-3 construct, residues 761-1054; Limits are printed for the construct 'which we used as substrate in our assays'; also called MIF4G domain 3
Consider B1, for which the binding entry in assay [1] and in assay [2] was “binds” in each case.

B2: UPF1 (endogenous, HeLa) (protein, UniProt Q92900 1-1129)
chain: MSVEAYGPSSQTLTFLDTEEAELLGADTQGSEFEFTDFTLPSQTQTPPGGPGGPGGGGAGGPGGAGAGAAAGQLDAQVGPEGILQNGAVDDSVAKTSQLLAELNFEEDEEDTYYTKDLPIHACSYCGIHDPACVVYCNTSKKWFCNGRGNTSGSHIVNHLVRAKCKEVTLHKDGPLGETVLECYNCGCRNVFLLGFIPAKADSVVVLLCRQPCASQSSLKDINWDSSQWQPLIQDRCFLSWLVKIPSEQEQLRARQITAQQINKLEELWKENPSATLEDLEKPGVDEEPQHVLLRYEDAYQYQNIFGPLVKLEADYDKKLKESQTQDNITVRWDLGLNKKRIAYFTLPKTDSGNEDLVIIWLRDMRLMQGDEICLRYKGDLAPLWKGIGHVIKVPDNYGDEIAIELRSSVGAPVEVTHNFQVDFVWKSTSFDRMQSALKTFAVDETSVSGYIYHKLLGHEVEDVIIKCQLPKRFTAQGLPDLNHSQVYAVKTVLQRPLSLIQGPPGTGKTVTSATIVYHLARQGNGPVLVCAPSNIAVDQLTEKIHQTGLKVVRLCAKSREAIDSPVSFLALHNQIRNMDSMPELQKLQQLKDETGELSSADEKRYRALKRTAERELLMNADVICCTCVGAGDPRLAKMQFRSILIDESTQATEPECMVPVVLGAKQLILVGDHCQLGPVVMCKKAAKAGLSQSLFERLVVLGIRPIRLQVQYRMHPALSAFPSNIFYEGSLQNGVTAADRVKKGFDFQWPQPDKPMFFYVTQGQEEIASSGTSYLNRTEAANVEKITTKLLKAGAKPDQIGIITPYEGQRSYLVQYMQFSGSLHTKLYQEVEIASVDAFQGREKDFIILSCVRANEHQGIGFLNDPRRLNVALTRARYGVIIVGNPKALSKQPLWNHLLNYYKEQKVLVEGPLNNLRESLMQFSKPRKLVNTINPGARFMTTAMYDAREAIIPGSVYDRSSQGRPSSMYFQTHDQIGMISAGPSHVAAMNIPIPFNLVMPPMPPPGYFGQANGPAAGRGTPKGKTGRGGRQKNRFGLPGPSQTNLPNSQASQDVASQPFSQGALTQGYISMSQPSQMSQPGLSQPELSQDSYLGDEFKSQIDVALSQDSTYQGERAYQHGGVTGLSQY
For B2, the binding entry in assay [3], in assay [4], in assay [5], in assay [6] and in assay [7] was “binds” each time.

B3: UPF3b (endogenous, HeLa) (protein, UniProt Q9BZI7 1-483)
chain: MKEEKEHRPKEKRVTLLTPAGATGSGGGTSGDSSKGEDKQDRNKEKKEALSKVVIRRLPPTLTKEQLQEHLQPMPEHDYFEFFSNDTSLYPHMYARAYINFKNQEDIILFRDRFDGYVFLDNKGQEYPAIVEFAPFQKAAKKKTKKRDTKVGTIDDDPEYRKFLESYATDNEKMTSTPETLLEEIEAKNRELIAKKTTPLLSFLKNKQRMREEKREERRRREIERKRQREEERRKWKEEEKRKRKDIEKLKKIDRIPERDKLKDEPKIKVHRFLLQAVNQKNLLKKPEKGDEKELDKREKAKKLDKENLSDERASGQSCTLPKRSDSELKDEKPKRPEDESGRDYREREREYERDQERILRERERLKRQEEERRRQKERYEKEKTFKRKEEEMKKEKDTLRDKGKKAESTESIGSSEKTEKKEEVVKRDRIRNKDRPAMQLYQPGARSRNRLCPPDDSTKSGDSAAERKQESGISHRKEGGEE
Turning to B3, the binding entry in assay [3], in assay [4], in assay [5], in assay [6] and in assay [7] was “binds” in each case.
